Reference: PubChem BioAssay AID894 (National Center for Advancing Translational Sciences (NCATS), 2007)
“And” between values parts separate entries of the source, which are not always exact repeats. Equal values may be shown once. Screen size: about 150,000 compounds; about 6,500 (4.3%) were called active. The inconclusive results got no clear call from the source; some entries with a clear call stand among them for comparison. Calls come from the whole dose curve; as a rule, active = well fitted inhibition curve with a large enough effect (not every such curve was filed as active); inconclusive = small, poorly fitted or top-dose-only effect, or another doubt; inactive = no such curve, though single readings can be large or run the other way. A potency beside an inconclusive call is a rough fit, not a confirmed value.
% is set by controls: 0 for no effect and ±100 for the full control effect; potency is the fitted concentration of half-maximal effect; tags give direction and shape of the fitted curve.

These compounds were tested against 15-hydroxyprostaglandin dehydrogenase [NAD(+)] (Homo sapiens) (UniProt P15428) (assay: qHTS Assay for Inhibitors of HPGD (15-Hydroxyprostaglandin Dehydrogenase)). Conditions: purified HPGD, NADH fluorescence kinetic, PGE2 substrate; activity change, negative = inhibition: stronger effect = lower value.
Sequence of UniProt P15428 (P15428 whole entry, looked up): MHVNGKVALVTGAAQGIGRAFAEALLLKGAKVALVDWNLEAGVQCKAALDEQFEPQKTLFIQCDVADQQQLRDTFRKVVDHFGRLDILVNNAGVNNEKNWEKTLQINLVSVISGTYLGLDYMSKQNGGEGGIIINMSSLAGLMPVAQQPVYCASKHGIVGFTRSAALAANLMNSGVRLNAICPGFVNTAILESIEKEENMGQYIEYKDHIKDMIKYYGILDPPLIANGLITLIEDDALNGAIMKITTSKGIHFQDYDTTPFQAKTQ
Procedure, shortened: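 NADH formation kinetics: reaction with 30 uM PGE2 and 1 mM NAD+ (final), 20 nM enzyme, Tris-HCl pH 8 with Tween 20, after 15 min compound preincubation at room temperature. Fluorescence change, last versus first of five reads.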
With `COC(=O)N1CCC[C@@]2(CCN(c3ccccn3)C2)C1` the Potency was inconclusive: 28.2 µM [inhibitor, partial curve]. In the case of `CCOC(=O)c1snc(-c2ccc(F)cc2)c1N`, the Potency is reported as inconclusive: 3.16 µM [inhibitor, full curve]. For `O=C(Nc1ccccc1)c1ccccc1NS(=O)(=O)c1ccc(Cl)s1`, the activity change, negative = inhibition was inactive: -4.56%. In the case of `CC(C)C(=O)NC(c1cccs1)c1cc([N+](=O)[O-])c2cccnc2c1O` (stereo not given), the activity change, negative = inhibition is reported as inactive: -21.8%. With `CCOc1cccc(C(=O)Nc2cccc(-c3nc4ncccc4o3)c2C)c1` the Potency was inconclusive: 20 µM [inhibitor, partial curve]. For `CC1CCCCC1NS(=O)(=O)c1ccc(S(=O)(=O)N2CCN(CCC#N)CC2)cc1` (stereo not given), the activity change, negative = inhibition was inactive: 4.15%. `Nc1c(C(=O)NCc2ccccc2)sc2nc(N3CCOCC3)c3c(c12)CCCC3` was tested, and the Potency was inconclusive: 31.6 µM [inhibitor, partial curve]. With `CC(C)C1Cc2[nH]c(=O)c(C(=O)O)cc2CO1` (stereo not given) the Potency was inconclusive: 22.4 µM [inhibitor, partial curve, poor fit]. In the case of `O=C(CNc1ccc2ccccc2c1)NNC1=NCCC1`, the Potency is reported as inconclusive: 35.5 µM [inhibitor, single point]. In the case of `COC(=O)c1c(C)[nH]c(O)c1C=Nc1ccc(C(C)C)cc1`, the Potency is reported as active: 25.1 µM. With `O=C(CSc1nc2ncc(Br)cc2[nH]1)c1ccc([N+](=O)[O-])cc1` the Potency was active: 8.91 µM. With `CN(C)c1ncc2nc(CCc3ccccc3)c(=O)n(-c3ccccc3)c2n1` the Potency was inconclusive: 2.82 µM [inhibitor, single point]. With `CC(C)N1CC=C2C(C#N)=C(N)C(C#N)(C#N)C(c3ccccc3)C2C1` (stereo not given) the Potency was inconclusive: 35.5 µM [inhibitor, partial curve]. In the case of `CC(C)N=c1scc(-c2ccco2)n1/N=C/c1ccc(O)c(O)c1`, the Potency is reported as active: 31.6 µM. For `COc1ccc2cc(C(c3nnnn3C3CCCC3)N3CCc4ccccc4C3)c(=O)[nH]c2c1` (stereo not given), the Potency was inconclusive: 22.4 µM [inhibitor, single point]. `CCOC(=O)c1cc(-c2ccco2)nc2c1c(C)nn2-c1cccc(Cl)c1` was tested, and the Potency was inconclusive: 28.2 µM [inhibitor, partial curve]. With `CCOC(=O)CN1C(=O)N[C@@H](c2ccco2)C(C(C)=O)=C1C` the activity change, negative = inhibition was inactive: -0.0616%. For `CCOC(=O)c1cc(-c2nnc(-c3ccc(Oc4ccccc4)cc3)o2)c(C)nc1C`, the Potency was inconclusive: 31.6 µM [inhibitor, partial curve]. In the case of `CS(=O)(=O)N(CC(=O)Nc1ccccc1C(=O)NCc1ccccc1)c1ccc2c(c1)OCCO2`, the Potency is reported as inconclusive: 35.5 µM [inhibitor, partial curve]. For `Cc1nc(N(C)Cc2ccccc2)c2nnn(Cc3ccccc3)c2n1`, the Potency was inconclusive: 31.6 µM [inhibitor, partial curve]. `CCN(CC)CCCCn1c(-c2ccccc2)nc2c(NCCOC)nc(C)nc21` was tested, and the Potency was inconclusive: 31.6 µM [inhibitor, partial curve]. `COc1ccc(/C=N\NC(=O)/C(=C\Nc2nccc(C)n2)NC(=O)c2ccccc2)cc1` was tested, and the Potency was inconclusive: 28.2 µM [inhibitor, partial curve]. `CC(C)c1ccc(/C=C/C(=O)NC2CCCCC2)cc1` was tested, and the activity change, negative = inhibition was inactive: -19.7%. `COc1cc(-c2cc(=O)c3ccccc3o2)ccc1O` was tested, and the Potency was active: 35.5 µM. For `COC(=O)c1ccc(CNCC(=O)Nc2ccc(C(=O)OC)cc2)cc1`, the Potency was active: 28.2 µM. With `O=P(CO)(Cc1ccccc1)Cc1ccccc1` the Potency was active: 15.8 µM. For `O=c1[nH]c2cc3c(cc2cc1C(c1nnnn1Cc1ccccc1)N1CCCCCC1)OCCO3` (stereo not given), the activity change, negative = inhibition was inactive: -19.6%. With `O=C(NCc1ccco1)c1nc2nc(-c3cccs3)cc(C(F)(F)F)n2n1` the Potency was inconclusive: 28.2 µM [inhibitor, partial curve]. With `Cc1ccccc1C(=O)Nc1nc(=S)ss1` the Potency was active: 14.1 µM. `O=C(NCCSCc1c(F)cccc1Cl)c1ccco1` was tested, and the Potency was active: 5.01 µM. For `CCSc1nc2c(c(=O)[nH]1)C(C(C)C)C(C#N)=C(N)O2` (stereo not given), the activity change, negative = inhibition was inactive: -6.62%. With `O=C(NCC1CCCO1)c1cc(-c2ccccc2)on1` (stereo not given) the Potency was inconclusive: 28.2 µM [inhibitor, partial curve, poor fit]. With `C[N+](C)(C)C(C1=CCCC1=O)c1ccccc1` (stereo not given) the activity change, negative = inhibition was inactive: -0.823%. With `COC(=O)c1cc(OC)c(OC)cc1NC(=S)N1CCN(c2ccccc2)CC1` the activity change, negative = inhibition was inactive: -8.97%. `O=c1oc(-c2ccccc2)nc2sc3c(c12)CCCC3` was tested, and the Potency was inconclusive: 35.5 µM [inhibitor, partial curve]. In the case of `Cc1cc(C)n(-c2nc(C)nc3c2cnn3-c2ccccc2)n1`, the Potency is reported as inconclusive: 31.6 µM [inhibitor, partial curve]. For `Cc1cc2c(c(=O)n1Cc1ccccn1)C(c1ccc3c(c1)OCO3)C(C#N)=C(N)O2` (stereo not given), the activity change, negative = inhibition was inactive: -12.5%. With `COC(=O)C1=C(NC(=O)c2ccc(C)c(C)c2)CCS1` the Potency was inconclusive: 31.6 µM [inhibitor, partial curve, poor fit]. In the case of `N#CC(C(=O)c1ccc(S(=O)(=O)N2CCCCCC2)cc1)c1nc2ccccc2[nH]1` (stereo not given), the Potency is reported as inconclusive: 25.1 µM [inhibitor, partial curve]. With `S=C(c1ccc(-c2cc(Cl)ccc2Cl)o1)N1CCCCC1` the Potency was active: 7.94 µM. For `CCCCCn1c(=O)c(Cc2ccccc2)c(O)c2ccccc21`, the Potency was inconclusive: 17.8 µM [inhibitor, partial curve]. For `CCCCCCCCCCOC(=O)c1csc2nnsc12`, the activity change, negative = inhibition was inactive: -17.8%. For `CCC/C(=N\NC(=O)c1csc(C)c1C)c1cccs1`, the Potency was inconclusive: 28.2 µM [inhibitor, partial curve]. `O=C(Nc1ccc2oc(-c3ccccc3)nc2c1)c1ccc2c(c1)OCCO2` was tested, and the Potency was inconclusive: 25.1 µM [inhibitor, partial curve]. `CCCCNC(=O)C(=O)N/N=C/c1cccc(Br)c1` was tested, and the activity change, negative = inhibition was inactive: -12.5%. `CC(=O)c1ccc(OCC(=O)c2cc(C)n(-c3ccc4c(c3)OCO4)c2C)cc1` was tested, and the Potency was inconclusive: 35.5 µM [inhibitor, partial curve]. `COc1ccc(CCNC(=O)c2ccc(-c3ccc([N+](=O)[O-])cc3Cl)o2)cc1OC` was tested, and the activity change, negative = inhibition was inactive: -9.29%. `Nc1nc2c(cnn2CCc2ccccc2)c2nc(-c3ccco3)nn12` was tested, and the Potency was inconclusive: 17.8 µM [inhibitor, partial curve]. With `Cc1ccc(-c2nc3cc(N)ccc3o2)c(C)c1` the Potency was inconclusive: 28.2 µM [inhibitor, partial curve]. With `COc1cc(-c2nnc(-c3cccs3)o2)cc(OC)c1OC` the Potency was inconclusive: 25.1 µM [inhibitor, partial curve]. With `COc1cc(C)ccc1OCCCOc1c(Cl)cccc1Cl` the Potency was active: 11.2 µM. With `O=C(O)C1=CC(=C(c2ccc(O)c(C(=O)O)c2)c2ccc(O)c(C(=O)O)c2)C=CC1=O` the Potency was inconclusive: 3.16 µM [inhibitor, full curve] and inconclusive: 3.55 µM [inhibitor, partial curve]. For `C[C@@H]1C(c2ccc(F)cc2)=NN(c2ccc(Br)cc2)[C@H]1C(=O)N1CCOC1=O`, the Potency was inconclusive: 35.5 µM [inhibitor, partial curve]. In the case of `Cc1ccccc1S(=O)(=O)Cc1ccc(C(=O)NCCCN2CCN(C)CC2)o1`, the Potency is reported as inconclusive: 7.08 µM [inhibitor, single point]. For `COC(=O)c1cc(OC)c(OC)cc1NC(=O)C1CCCO1` (stereo not given), the Potency was inconclusive: 25.1 µM [inhibitor, partial curve]. In the case of `Clc1ccc(-n2ncc3c(N4CCCCCC4)ncnc32)cc1`, the Potency is reported as inconclusive: 14.1 µM [inhibitor, partial curve]. `O=c1[nH]c2ccccc2nc1/C=C(\O)C(F)F` was tested, and the Potency was inconclusive: 11.2 µM [inhibitor, partial curve]. For `O=C(OCC(=O)N1N=C(c2ccc(Cl)cc2)CC1c1ccco1)c1ccccc1O` (stereo not given), the Potency was inconclusive: 31.6 µM [inhibitor, partial curve]. With `COCCn1c(=O)cnc2cnc(N3CCNCC3)nc21` the Potency was inconclusive: 31.6 µM [inhibitor, partial curve]. For `CSc1nc(C)c(Oc2ccccc2)c(=O)n1C`, the Potency was active: 12.6 µM. `O=C(O)Cc1c(O)ccc2ccccc12` was tested, and the Potency was inconclusive: 17.8 µM [inhibitor, partial curve] and inconclusive: 3.55 µM [inhibitor, partial curve]. For `O=C(O)c1ccc(-c2nc3ccccc3[nH]2)cc1`, the Potency was inconclusive: 12.6 µM [inhibitor, partial curve]. In the case of `c1ccc(CC2CCN(c3nnnn3-c3ccccc3)CC2)cc1`, the activity change, negative = inhibition is reported as inactive: -21%. In the case of `COc1ccc(C(=O)n2nc(-c3ccccc3)nc2SC)cc1`, the Potency is reported as inconclusive: 31.6 µM [inhibitor, partial curve]. `COc1ccc(OCCC(=O)N2CCCCC2)cc1` was tested, and the Potency was active: 15.8 µM. `Cc1cc(=O)oc2cc(OCC(=O)OCC(=O)Nc3ccccc3C(C)C)ccc12` was tested, and the Potency was inconclusive: 31.6 µM [inhibitor, partial curve]. `COc1ccc(OCCSc2nnc(Cc3cccc4ccccc34)n2N)cc1` was tested, and the Potency was active: 22.4 µM. In the case of `COc1ccc(C2=NOC(C(=O)NCC(C)C)C2)cc1` (stereo not given), the Potency is reported as inconclusive: 20 µM [inhibitor, partial curve]. For `CCOc1ccc(-c2nnc(-c3ccco3)o2)cc1OCC`, the Potency was inconclusive: 31.6 µM [inhibitor, partial curve]. In the case of `COc1cccc([C@@H]2Oc3ccc(OC)cc3C(=O)[C@H]2OC(=O)N[C@H]2CCCc3ccccc32)c1`, the activity change, negative = inhibition is reported as inactive: -28.3%.
